# Measurements published in the supplement of paper PMC8728848.
# This is one part of the list.
# Legend:
# Assay in all cases: glycan array binding signal (z-score within array); higher = stronger binding
# Conditions in all cases: glycan notation: IUPAC condensed, linker removed
# [1] = molecular target: GlcNAc(b1-2)Gal(b1-3)GalNAc
# In short: (§1)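 Arrays were curated from the Consortium for Functional Glycomics database, 3228 in total, and kept only where the protein sequence was available. Binding is expressed as a within-array Z-score. This score was averaged across arrays of the same protein sequence at different concentrations or buffers and across linkers, and negative values can be read as non-binding.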
# [2] = molecular target: GlcNAc(b1-2)Man(a1-3)[GlcNAc(b1-2)Man(a1-6)]Man(b1-4)GlcNAc(b1-4)GlcNAc
# In short: as §1
# [3] = molecular target: GlcNAc(b1-2)Man(a1-3)[GlcNAc(b1-2)Man(a1-6)]Man(b1-4)GlcNAc(b1-4)[Fuc(a1-6)]GlcNAc
# In short: as §1
# [4] = molecular target: GlcNAc(b1-2)Man(a1-3)[GlcNAc(b1-4)][GlcNAc(b1-2)Man(a1-6)]Man(b1-4)GlcNAc(b1-4)GlcNAc
# In short: as §1
# [5] = molecular target: GlcNAc(b1-2)Man(a1-3)[GlcNAc(b1-4)][GlcNAc(b1-2)Man(a1-6)]Man(b1-4)GlcNAc(b1-4)[Fuc(a1-6)]GlcNAc
# In short: as §1
# [6] = molecular target: GlcNAc(b1-2)[GlcNAc(b1-4)]Man(a1-3)[GlcNAc(b1-2)Man(a1-6)]Man(b1-4)GlcNAc(b1-4)GlcNAc
# In short: as §1
# [7] = molecular target: GlcNAc(b1-2)[GlcNAc(b1-4)]Man(a1-3)[GlcNAc(b1-4)][GlcNAc(b1-2)Man(a1-6)]Man(b1-4)GlcNAc(b1-4)GlcNAc
# In short: as §1
# [8] = molecular target: GlcNAc(b1-2)[GlcNAc(b1-4)]Man(a1-3)[GlcNAc(b1-4)][GlcNAc(b1-2)[GlcNAc(b1-6)]Man(a1-6)]Man(b1-4)GlcNAc(b1-4)GlcNAc
# In short: as §1
# [9] = molecular target: GlcNAc(b1-2)[GlcNAc(b1-4)]Man(a1-3)[GlcNAc(b1-4)][GlcNAc(b1-2)[GlcNAc(b1-6)]Man(a1-6)]Man(b1-4)GlcNAc(b1-4)[Fuc(a1-6)]GlcNAc
# In short: as §1
# [10] = molecular target: GlcNAc(b1-2)[GlcNAc(b1-6)]Man(a1-6)[GlcNAc(b1-2)Man(a1-3)]Man(b1-4)GlcNAc(b1-4)GlcNAc
# In short: as §1
# [11] = molecular target: GlcNAc(b1-2)[GlcNAc(b1-6)]Man(a1-6)[GlcNAc(b1-2)Man(a1-3)]Man(b1-4)GlcNAc(b1-4)[Fuc(a1-6)]GlcNAc
# In short: as §1
# [12] = molecular target: GlcNAc(b1-2)[GlcNAc(b1-6)]Man(a1-6)[GlcNAc(b1-4)][GlcNAc(b1-2)Man(a1-3)]Man(b1-4)GlcNAc(b1-4)GlcNAc
# In short: as §1
# GlcNAc(b1-3)Fuc = molecular target: GlcNAc(b1-3)Fuc
# In short: as §1
# GlcNAc(b1-3)Gal = molecular target: GlcNAc(b1-3)Gal
# In short: as §1
# [13] = molecular target: GlcNAc(b1-3)Gal(b1-3)GalNAc
# In short: as §1
# GlcNAc(b1-3)Gal(b1-4)Glc = molecular target: GlcNAc(b1-3)Gal(b1-4)Glc
# In short: as §1
# [14] = molecular target: GlcNAc(b1-3)Gal(b1-4)GlcNAc
# In short: as §1
# [15] = molecular target: GlcNAc(b1-3)Gal(b1-4)GlcNAc(b1-2)Man(a1-3)[GlcNAc(b1-3)Gal(b1-4)GlcNAc(b1-2)Man(a1-6)]Man(b1-4)GlcNAc(b1-4)GlcNAc
# In short: as §1
# [16] = molecular target: GlcNAc(b1-3)Gal(b1-4)GlcNAc(b1-2)Man(a1-3)[GlcNAc(b1-3)Gal(b1-4)GlcNAc(b1-2)Man(a1-6)]Man(b1-4)GlcNAc(b1-4)[Fuc(a1-6)]GlcNAc
# In short: as §1
# [17] = molecular target: GlcNAc(b1-3)Gal(b1-4)GlcNAc(b1-2)[GlcNAc(b1-3)Gal(b1-4)GlcNAc(b1-6)]Man(a1-6)[GlcNAc(b1-3)Gal(b1-4)GlcNAc(b1-2)Man(a1-3)]Man(b1-4)GlcNAc(b1-4)GlcNAc
# In short: as §1
# [18] = molecular target: GlcNAc(b1-3)Gal(b1-4)GlcNAc(b1-3)Gal(b1-4)GlcNAc
# In short: as §1
# [19] = molecular target: GlcNAc(b1-3)Gal(b1-4)GlcNAc(b1-3)Gal(b1-4)GlcNAc(b1-2)Man(a1-3)[GlcNAc(b1-3)Gal(b1-4)GlcNAc(b1-3)Gal(b1-4)GlcNAc(b1-2)Man(a1-6)]Man(b1-4)GlcNAc(b1-4)GlcNAc
# In short: as §1
# [20] = molecular target: GlcNAc(b1-3)Gal(b1-4)GlcNAc(b1-3)Gal(b1-4)GlcNAc(b1-2)Man(a1-3)[GlcNAc(b1-3)Gal(b1-4)GlcNAc(b1-3)Gal(b1-4)GlcNAc(b1-2)Man(a1-6)]Man(b1-4)GlcNAc(b1-4)[Fuc(a1-6)]GlcNAc
# In short: as §1
# [21] = molecular target: GlcNAc(b1-3)Gal(b1-4)GlcNAc(b1-3)Gal(b1-4)GlcNAc(b1-2)[GlcNAc(b1-3)Gal(b1-4)GlcNAc(b1-3)Gal(b1-4)GlcNAc(b1-6)]Man(a1-6)[GlcNAc(b1-3)Gal(b1-4)GlcNAc(b1-3)Gal(b1-4)GlcNAc(b1-2)Man(a1-3)]Man(b1-4)GlcNAc(b1-4)[Fuc(a1-6)]GlcNAc
# In short: as §1
# [22] = molecular target: GlcNAc(b1-3)Gal(b1-4)GlcNAc(b1-3)Gal(b1-4)GlcNAc(b1-3)Gal(b1-4)GlcNAc(b1-2)Man(a1-3)[GlcNAc(b1-3)Gal(b1-4)GlcNAc(b1-3)Gal(b1-4)GlcNAc(b1-3)Gal(b1-4)GlcNAc(b1-2)Man(a1-6)]Man(b1-4)GlcNAc(b1-4)GlcNAc
# In short: as §1
# [23] = molecular target: GlcNAc(b1-3)Gal(b1-4)GlcNAc(b1-3)Gal(b1-4)GlcNAc(b1-3)Gal(b1-4)GlcNAc(b1-2)Man(a1-3)[GlcNAc(b1-3)Gal(b1-4)GlcNAc(b1-3)Gal(b1-4)GlcNAc(b1-3)Gal(b1-4)GlcNAc(b1-2)Man(a1-6)]Man(b1-4)GlcNAc(b1-4)[Fuc(a1-6)]GlcNAc
# In short: as §1
# [24] = molecular target: GlcNAc(b1-3)Gal(b1-4)GlcNAc(b1-3)Gal(b1-4)GlcNAc(b1-3)Gal(b1-4)GlcNAc(b1-2)[GlcNAc(b1-3)Gal(b1-4)GlcNAc(b1-3)Gal(b1-4)GlcNAc(b1-3)Gal(b1-4)GlcNAc(b1-6)]Man(a1-6)[GlcNAc(b1-3)Gal(b1-4)GlcNAc(b1-3)Gal(b1-4)GlcNAc(b1-3)Gal(b1-4)GlcNAc(b1-2)Man(a1-3)]Man(b1-4)GlcNAc(b1-4)[Fuc(a1-6)]GlcNAc
# In short: as §1
# [25] = molecular target: GlcNAc(b1-3)Gal(b1-4)GlcNAc(b1-3)Gal(b1-4)GlcNAc(b1-3)Gal(b1-4)GlcNAc(b1-3)Gal(b1-4)GlcNAc(b1-2)Man(a1-3)[GlcNAc(b1-3)Gal(b1-4)GlcNAc(b1-3)Gal(b1-4)GlcNAc(b1-3)Gal(b1-4)GlcNAc(b1-3)Gal(b1-4)GlcNAc(b1-2)Man(a1-6)]Man(b1-4)GlcNAc(b1-4)GlcNAc
# In short: as §1
# [26] = molecular target: GlcNAc(b1-3)Gal(b1-4)GlcNAc(b1-3)Gal(b1-4)GlcNAc(b1-3)Gal(b1-4)GlcNAc(b1-3)Gal(b1-4)GlcNAc(b1-2)Man(a1-3)[GlcNAc(b1-3)Gal(b1-4)GlcNAc(b1-3)Gal(b1-4)GlcNAc(b1-3)Gal(b1-4)GlcNAc(b1-3)Gal(b1-4)GlcNAc(b1-2)Man(a1-6)]Man(b1-4)GlcNAc(b1-4)[Fuc(a1-6)]GlcNAc
# In short: as §1
# [27] = molecular target: GlcNAc(b1-3)Gal(b1-4)GlcNAc(b1-3)Gal(b1-4)GlcNAc(b1-3)Gal(b1-4)GlcNAc(b1-3)Gal(b1-4)GlcNAc(b1-2)[GlcNAc(b1-3)Gal(b1-4)GlcNAc(b1-3)Gal(b1-4)GlcNAc(b1-3)Gal(b1-4)GlcNAc(b1-3)Gal(b1-4)GlcNAc(b1-6)]Man(a1-6)[GlcNAc(b1-3)Gal(b1-4)GlcNAc(b1-3)Gal(b1-4)GlcNAc(b1-3)Gal(b1-4)GlcNAc(b1-3)Gal(b1-4)GlcNAc(b1-2)Man(a1-3)]Man(b1-4)GlcNAc(b1-4)[Fuc(a1-6)]GlcNAc
# In short: as §1
binder,measurement,setting,value
PX9896A-bth-573-26-573 (Bacteroides thetaiotaomicron) (protein) ETNNLKTKEDMYKYFGTSKSMLTHVYSYMPQGYQLFATSGGIFTEDRYSMRDCASDDGEFGAYADNIQNTNNGNWSPIKTYDDSWTLYRGIRAANSFIAEIAQVDFTRYEHDGQYTNWMKQLKYFPYEARVLRAHYFFELARRYGDIAMPLEVLTEEEANTIGKTPFSEVISFIVSECDDAANNLPDSYVNEPGAEIGRVTKGFAMAVKSKALLYAASKLHNPSMDTELWKKSAKAAIDIINTGLYSLDPQESANNLDSKEVVLMRINGDDSDFEMFNLPLRMTAGTRTSSLIPYSNYPSQNLVDAFETVNGYKVTLENTGWVCEDPAFDPQSPYENRDKRFYRAILANGMSFKDYTIETFKGGADDGIVSQGGSPTGYFLRKYIQEATSFEPGKEAVSKHHWVIYRYAETLLTYAESMVNAFNDVNYTDETYKYSALWAINEVRKNADMPLIPSMGKDEFMERLYNEWRVEFAFEDHRFWDVRRWKIADTTQRELYGVKIEKQADGTFNFYKNLYETRNWRDCMYLYPIPQSELYKNTNLNPQNTGW,glycan array binding signal (z-score),[1],0.16
same,glycan array binding signal (z-score),[2],-0.563
same,glycan array binding signal (z-score),[3],0.84
same,glycan array binding signal (z-score),[4],-0.644
same,glycan array binding signal (z-score),[5],0.138
same,glycan array binding signal (z-score),[6],0.234
same,glycan array binding signal (z-score),[7],-0.753
same,glycan array binding signal (z-score),[8],-0.791
same,glycan array binding signal (z-score),[9],-0.141
same,glycan array binding signal (z-score),[10],0.211
same,glycan array binding signal (z-score),[11],-0.582
same,glycan array binding signal (z-score),[12],0.138
same,glycan array binding signal (z-score),GlcNAc(b1-3)Fuc,0.149
same,glycan array binding signal (z-score),GlcNAc(b1-3)Gal,0.42
same,glycan array binding signal (z-score),[13],-0.077
same,glycan array binding signal (z-score),GlcNAc(b1-3)Gal(b1-4)Glc,0.621
same,glycan array binding signal (z-score),[14],0.141
same,glycan array binding signal (z-score),[15],0.09
same,glycan array binding signal (z-score),[16],1.57
same,glycan array binding signal (z-score),[17],0.497
same,glycan array binding signal (z-score),[18],-0.759
same,glycan array binding signal (z-score),[19],0.753
same,glycan array binding signal (z-score),[20],0.309
same,glycan array binding signal (z-score),[21],0.724
same,glycan array binding signal (z-score),[22],0.176
same,glycan array binding signal (z-score),[23],1.82
same,glycan array binding signal (z-score),[24],0.579
same,glycan array binding signal (z-score),[25],0.69
same,glycan array binding signal (z-score),[26],0.252
same,glycan array binding signal (z-score),[27],0.825
